Experimental data as given in publication PMC4336329 (PLoS ONE, 2015).
Screen size: about 310,000 compounds; about 2,200 (0.71%) showed an effect of 50% or more. Effects have a minus sign here. The list shows a part of the results.

What follows are compounds tested against human ether-à-go-go-related gene (hERG) potassium channel (human, UniProt Q12809) (assay: primary screen, population patch clamp on CHO cells stably expressing hERG).
human ether-à-go-go-related gene (hERG) potassium channel, sequence (Q12809 whole entry, looked up): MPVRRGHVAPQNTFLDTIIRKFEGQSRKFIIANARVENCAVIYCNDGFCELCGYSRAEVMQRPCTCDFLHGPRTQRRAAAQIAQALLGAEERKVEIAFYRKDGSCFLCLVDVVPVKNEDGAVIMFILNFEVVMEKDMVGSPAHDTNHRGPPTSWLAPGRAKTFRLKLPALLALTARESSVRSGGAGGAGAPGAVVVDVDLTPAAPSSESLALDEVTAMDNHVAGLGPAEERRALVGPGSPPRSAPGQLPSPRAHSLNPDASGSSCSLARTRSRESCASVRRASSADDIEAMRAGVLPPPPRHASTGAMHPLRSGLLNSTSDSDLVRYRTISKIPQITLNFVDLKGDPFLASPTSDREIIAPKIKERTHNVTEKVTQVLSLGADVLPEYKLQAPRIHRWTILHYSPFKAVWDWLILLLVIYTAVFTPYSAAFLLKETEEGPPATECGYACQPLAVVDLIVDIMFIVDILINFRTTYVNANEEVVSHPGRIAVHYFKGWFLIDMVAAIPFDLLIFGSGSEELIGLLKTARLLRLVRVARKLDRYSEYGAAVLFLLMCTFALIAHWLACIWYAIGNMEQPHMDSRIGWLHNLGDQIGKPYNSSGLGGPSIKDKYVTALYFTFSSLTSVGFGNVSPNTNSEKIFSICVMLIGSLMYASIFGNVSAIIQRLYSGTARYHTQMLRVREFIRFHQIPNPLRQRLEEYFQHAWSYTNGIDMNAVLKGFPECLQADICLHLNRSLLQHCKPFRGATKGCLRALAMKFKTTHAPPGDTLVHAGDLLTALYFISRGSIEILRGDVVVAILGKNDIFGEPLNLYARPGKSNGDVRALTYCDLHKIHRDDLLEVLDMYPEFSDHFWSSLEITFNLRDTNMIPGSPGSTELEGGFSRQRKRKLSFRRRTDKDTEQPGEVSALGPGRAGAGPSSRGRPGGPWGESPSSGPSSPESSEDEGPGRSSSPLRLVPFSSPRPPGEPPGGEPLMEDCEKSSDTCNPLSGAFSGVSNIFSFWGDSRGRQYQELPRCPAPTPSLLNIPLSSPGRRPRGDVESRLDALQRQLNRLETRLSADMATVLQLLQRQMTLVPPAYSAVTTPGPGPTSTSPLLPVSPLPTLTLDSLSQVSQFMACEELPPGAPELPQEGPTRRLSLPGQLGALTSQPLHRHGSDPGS

Row | SMILES | hERG current change (%, negative = inhibition) at 1uM
1 | CC(=O)N1C(=O)C2(C(C#N)=C(N)Oc3n[nH]c(-c4ccccn4)c32)c2ccccc21 (stereo not shown) | 4.15%
2 | Br.Cc1ccc(C(=O)CN(Cc2ccccc2)C2=NCCS2)cc1 | 5.46%
3 | CC1CC(=O)Nc2ccccc2N1C(=O)COc1ccc2cc(Br)ccc2c1 (stereo not shown) | 11.3%
4 | COc1ccccc1OCc1ccc(C(=O)NCCN(C)C)o1 | 8.42%
5 | COc1ccc(CN2CCOCC2)cc1Br | 0.085%
6 | S=C(NCC1(c2ccccc2)CCCC1)Nc1ccccc1 | 13.5%
7 | Cc1ccc(OC(=O)c2cc3ccccc3o2)cc1 | 12.9%
8 | O=C(NC1CCCC1)C(c1ccccc1F)N(C(=O)c1csnn1)C1CC1 (stereo not shown) | 10.5%
9 | COC(OC)c1ccnc(-c2ccc(OC(=O)c3ccccc3)cc2)n1 | 18.4%
10 | CC(C)CC(=O)NC1(C(F)(F)F)NC(=O)N(c2ccccc2)C1=O (stereo not shown) | 10.3%
11 | COc1ccc(C(=O)NCc2ccc3c(c2)OCO3)cc1S(=O)(=O)NCc1ccc(Cl)cc1 | -9.15%
12 | O=Cc1sc(N2CCOCC2)nc1-c1ccccc1 | 8.95%
13 | COC(=O)c1sccc1NC(=O)COc1ccc(C)cc1 | 12.1%
14 | Nc1ccc(S(=O)(=O)c2cccc(N)c2)cc1 | 4.78%
15 | CC1C(=O)OC(c2ccc(Cl)cc2)C(C)(C)C1=O (stereo not shown) | 10.9%
16 | C/C(=N\Nc1cc(N2CCOCC2)nc(C)n1)c1ccc(F)cc1 | 15.9%
17 | CN1CCCN(C(=O)c2ccc(Br)s2)CC1 | 1.6%
18 | O=Nc1onc(-c2ccc([N+](=O)[O-])cc2)c1NO | 4.96%
19 | O=C(Cc1ccccc1)N1CCN(Cc2ccccc2Cl)CC1.O=C(O)C(=O)O | 15.7%
20 | Cc1ccc2c(c1)NCC(C(=O)NCc1ccccc1)O2 (stereo not shown) | 10.4%
21 | O=c1[nH]c(C2CCN(S(=O)(=O)c3ccc4c(c3)OCCO4)CC2)nc2c1nnn2Cc1cccc(F)c1 | 15%
22 | O=C(c1ccc(CS(=O)(=O)c2c(Cl)cccc2Cl)o1)N1CCCC1 | -3.65%
23 | CC(C)C[C@H](NC(=O)N1c2ccccc2NC(=O)[C@@H]1C(C)C)C(=O)N[C@@H](Cc1ccccc1)C(=O)O | 4.94%
24 | CSc1nc(-c2ccccc2)nc(N2CCOCC2)c1C(C)=O | 15.4%
25 | O=C(Nc1ncc(Cc2ccccc2)s1)C1=NCCN1 | 5.75%
26 | CN(CC(=O)Nc1nc2ccccc2s1)S(=O)(=O)c1ccccc1 | 10.5%
27 | COc1ccc(Cc2nc(=S)[nH][nH]2)cc1Br | 6.38%
28 | O=C(O)C1Cc2c([nH]c3ccccc23)C(c2ccc3c(c2)OCO3)N1 (stereo not shown) | 12.7%

Row | SMILES | hERG current change (%, negative = inhibition) at 1uM
29 | Cc1ccc(NC(=O)CSc2nnc(C3COc4ccccc4O3)o2)c(Cl)c1 (stereo not shown) | 8.71%
30 | N#Cc1c(NC(=O)c2cc(-n3cnnc3)ccc2Cl)sc2c1CCCC2 | 4.88%
31 | O=C1C(Cl)=C(N2CCOCC2)C(=O)N1CCc1ccccc1 | -11.8%
32 | CN(C)S(=O)(=O)c1ccc(C(=O)Nc2nnc(-c3ccc4c(c3)CCCC4)o2)cc1 | 9.35%
33 | Cc1ccccc1SCC(=O)NNC(=O)c1ccccc1O | 12.3%
34 | COc1ccccc1CNC(=O)C1=CCN(S(=O)(=O)c2ccc(C)cc2)CC1 | 5.9%
35 | COc1ccc(NC(=O)CSc2nnc(-c3cccc(O)c3)o2)cc1 | 13.8%
36 | O=C(O)c1ccccc1Sc1ncnc2sccc12 | 3.87%
37 | CCOc1cc(C2NC(=O)CCC2[N+](=O)[O-])cc(Br)c1OC (stereo not shown) | 7.99%
38 | CN(Cc1ccncn1)C(=O)CC1C(=O)NCCN1Cc1cccc(Oc2ccccc2)c1 (stereo not shown) | 11.6%
39 | COC(=O)N/N=C/c1cc(Br)ccc1O | 7.24%
40 | O=C(N/N=C/c1ccc(N2CCOCC2)c([N+](=O)[O-])c1)c1ccc(F)cc1 | -10%
41 | COc1cc(NC(=O)c2ccc([N+](=O)[O-])cc2)c(OC)cc1NC(=O)CC(C)C | 0.276%
42 | COc1cc(NC(=O)CN(C)S(=O)(=O)c2ccc3c(c2)CCC(=O)N3)cc(OC)c1 | -4.52%
43 | O=C(Nc1ccc(C(F)(F)F)cc1)c1cc(S(=O)(=O)NCC2COc3ccccc3O2)ccc1F (stereo not shown) | 12.7%
44 | C=CCOC(=O)C1=C(C)N=c2s/c(=C3\C(=O)N(CC(=O)O)c4ccccc43)c(=O)n2C1c1ccc(OC)cc1.CC(=O)O (stereo not shown) | 9.99%
45 | O=C(O)CCC(=O)N1CCc2cc(S(=O)(=O)NC3CCCc4ccccc43)ccc21 (stereo not shown) | 1.13%
46 | O=C(COC(=O)CNC(=O)c1ccccc1)Nc1ccc(F)c([N+](=O)[O-])c1 | 6.93%
47 | CN(C)S(=O)(=O)c1ccc(Cl)c(C(=O)Nc2nc3ccccc3[nH]2)c1 | 11.8%
48 | Cc1ccnc(NS(=O)(=O)c2ccc(NC(=O)C3CCCO3)cc2)n1 (stereo not shown) | 4.25%
49 | CC(C)Cn1c(-c2cc(Br)ccc2F)nc2c1c(=O)[nH]c(=O)n2CC(C)C | 8.49%
50 | CCc1ccc(Nc2nnc(SCC(=O)Nc3ccc(C(=O)O)cc3)s2)cc1 | 13%
51 | CC(C)(C)C(=O)Nc1cc(S(=O)(=O)N2CCCCC2)ccc1N1CCCCC1 | 12.6%
52 | CCCSCCCNC(=O)Cn1cc2c(n1)CCCCC2 | 11.8%
53 | O=C(O)C(F)(F)F.O=C1C(Cc2ccccc2)Nc2ncnc(N3CCN(c4ccccc4)CC3)c2N1Cc1ccccc1 (stereo not shown) | 9.42%
54 | CCOC(=O)c1c(NC(=O)CSc2nc3cccnc3n2C)sc(C(C)=O)c1C | 10.7%
55 | CCCCn1c(O)c(C(CC)=NC(C)c2ccccc2)c(=O)[nH]c1=O (stereo not shown) | -2.57%
